Measurements from the supplement of paper PMC10126150.
Values marked as one replicate rest on one cluster of the flow cell; about a third of the high ones do not repeat.
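Note: ATP exposure 15 min at 22 °C before imaging.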

These sequences were tested on ATP (assay: switch fluorescence ratio, 500 uM ATP over buffer (Cy3 cluster intensity, sum of 5 cycles each) (fold (ratio)); higher = stronger signal-on switching upon ATP binding; sequences stand for … in TCGTCGGCAGCGTCAGATGTGTATAAGAGACAGTTTTTTTTTTTTTTTTTTTTTTTTT…TC). Details: aptamer strand: ATP DNA aptamer (quencher-CACCTGGGGGAGTATTGCGGAGGAAGG + anchor), 100 nM annealed; ATP concentration: 500 uM; one replicate.
How it was run: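 Imaging in selection buffer was followed by imaging after 15 min with 500 uM ATP at 22 °C, for Cy3-labelled switching-strand clusters annealed to 100 nM quencher-labelled ATP aptamer on a modified Illumina MiSeq flow-cell. Five of these buffer/ATP cycles ran, separated by NaOH stripping and re-annealing. The fluorescence ratio per cluster is summed target-cycle over summed buffer-cycle Cy3 intensity, averaged per switch-domain sequence; clusters outside 100-1000 RFU were removed.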
TGACCGACAG gave a switch fluorescence ratio of 1.
With TGACCTGCAT the switch fluorescence ratio was 1.18.
Sequence TGACGAAGTA has a switch fluorescence ratio of 0.998.
Sequence TGACGCGGCT has a switch fluorescence ratio of 1.01.
TGACGCTTTT showed a switch fluorescence ratio of 1.06.
In the case of TGACGGACGA, the switch fluorescence ratio is reported as 1.21.
Work on TGACGGACGC yielded a switch fluorescence ratio of 1.26.
TGACGTTGGC showed a switch fluorescence ratio of 1.03.
TGACTAACGG showed a switch fluorescence ratio of 1.08.
TGACTCACAT was tested, and the switch fluorescence ratio was 1.26.
TGACTCTTAA gave a switch fluorescence ratio of 1.03.
TGACTGATC gave a switch fluorescence ratio of 1.05.
For TGACTTAGGC, the switch fluorescence ratio was 1.01.
TGACTTCCGC was tested, and the switch fluorescence ratio was 1.7.
TGACTTGTAG was tested, and the switch fluorescence ratio was 1.01.
With TGAGAAACGG the switch fluorescence ratio was 1.01.
TGAGAACGTT was tested, and the switch fluorescence ratio was 1.05.
Work on TGAGACAGGT yielded a switch fluorescence ratio of 0.932.
For TGAGACGGGT, the switch fluorescence ratio was 0.988.
For TGAGAGATAG, the switch fluorescence ratio was 0.986.
TGAGAGATCC gave a switch fluorescence ratio of 1.01.
TGAGAGGCG showed a switch fluorescence ratio of 1.11.
With TGAGATACAG the switch fluorescence ratio was 0.999.
Work on TGAGCCAGGG yielded a switch fluorescence ratio of 0.981.
Sequence TGAGCCTAC has a switch fluorescence ratio of 0.991.
TGAGCGCTGG showed a switch fluorescence ratio of 1.02.
Work on TGAGCGGCCG yielded a switch fluorescence ratio of 1.
Sequence TGAGCTACGA has a switch fluorescence ratio of 1.02.
Sequence TGAGCTAT has a switch fluorescence ratio of 1.34.
Sequence TGAGGAGCAT has a switch fluorescence ratio of 1.02.
TGAGGAGTCG was tested, and the switch fluorescence ratio was 1.01.
For TGAGGATGAC, the switch fluorescence ratio was 1.04.
TGAGGATTGT gave a switch fluorescence ratio of 0.99.
In the case of TGAGGCTTAG, the switch fluorescence ratio is reported as 1.02.
TGAGGGAGTC was tested, and the switch fluorescence ratio was 0.996.
Sequence TGAGGGCATA has a switch fluorescence ratio of 1.56.
In the case of TGAGGGGACT, the switch fluorescence ratio is reported as 0.99.
For TGAGGTAGAC, the switch fluorescence ratio was 1.04.
TGAGTATGTA was tested, and the switch fluorescence ratio was 1.
Work on TGAGTCGCAG yielded a switch fluorescence ratio of 1.04.
Sequence TGAGTGTTTG has a switch fluorescence ratio of 0.959.
With TGAGTTCTAG the switch fluorescence ratio was 1.01.
Sequence TGAGTTTCCC has a switch fluorescence ratio of 0.981.
With TGATAACTAG the switch fluorescence ratio was 0.96.
Work on TGATACAGTA yielded a switch fluorescence ratio of 0.967.
Sequence TGATACCCAA has a switch fluorescence ratio of 1.04.
Sequence TGATAGAAGC has a switch fluorescence ratio of 0.961.
TGATAGC was tested, and the switch fluorescence ratio was 1.
TGATAGCGGC was tested, and the switch fluorescence ratio was 0.988.
With TGATATGAGA the switch fluorescence ratio was 0.987.
TGATCATTCA gave a switch fluorescence ratio of 1.02.
In the case of TGATCCCAGC, the switch fluorescence ratio is reported as 1.05.
In the case of TGATCCGGAC, the switch fluorescence ratio is reported as 0.991.
TGATCGCGGA showed a switch fluorescence ratio of 0.971.
With TGATCTATCC the switch fluorescence ratio was 0.952.
TGATCTTCA showed a switch fluorescence ratio of 1.02.
In the case of TGATCTTCCA, the switch fluorescence ratio is reported as 1.01.
Work on TGATGAGTAG yielded a switch fluorescence ratio of 0.997.
TGATGATACG gave a switch fluorescence ratio of 0.989.
TGATGGACGA gave a switch fluorescence ratio of 0.991.
In the case of TGATGTGGAA, the switch fluorescence ratio is reported as 1.01.
TGATTACATA gave a switch fluorescence ratio of 1.01.
Work on TGATTCAATT yielded a switch fluorescence ratio of 0.973.
Work on TGATTGTCGG yielded a switch fluorescence ratio of 0.989.
In the case of TGATTTAGTC, the switch fluorescence ratio is reported as 1.01.
For TGATTTGTAC, the switch fluorescence ratio was 1.06.
With TGATTTTCCT the switch fluorescence ratio was 1.06.
TGCAAAACGT showed a switch fluorescence ratio of 1.08.
TGCAAATGTT was tested, and the switch fluorescence ratio was 1.03.
Work on TGCAAGATGG yielded a switch fluorescence ratio of 1.08.
TGCAAGTGAT showed a switch fluorescence ratio of 0.986.
For TGCAATATGT, the switch fluorescence ratio was 1.56.
TGCACATGTT was tested, and the switch fluorescence ratio was 1.
Work on TGCACCTACG yielded a switch fluorescence ratio of 1.5.
Sequence TGCACGAGAA has a switch fluorescence ratio of 1.06.
TGCACGCCCC gave a switch fluorescence ratio of 1.93.
